The supplement of paper PMC3334620
The full ranking holds about 33,000 sequences; the median of “E-score (-0.5 to 0.5)” is about -0.016, and the highest 2% start at about 0.32. The list shows a part of the results.

These sequences were tested against T1, Stp1 (UniProt B3LFK1) (assay: PBM E-score (8-mer binding enrichment) (E-score (-0.5 to 0.5)); higher = stronger / more preferred TF binding; most listed sequences are background and not binding sites). Settings: protein concentration: 200 nM; construct: GST-full length.
T1 sequence: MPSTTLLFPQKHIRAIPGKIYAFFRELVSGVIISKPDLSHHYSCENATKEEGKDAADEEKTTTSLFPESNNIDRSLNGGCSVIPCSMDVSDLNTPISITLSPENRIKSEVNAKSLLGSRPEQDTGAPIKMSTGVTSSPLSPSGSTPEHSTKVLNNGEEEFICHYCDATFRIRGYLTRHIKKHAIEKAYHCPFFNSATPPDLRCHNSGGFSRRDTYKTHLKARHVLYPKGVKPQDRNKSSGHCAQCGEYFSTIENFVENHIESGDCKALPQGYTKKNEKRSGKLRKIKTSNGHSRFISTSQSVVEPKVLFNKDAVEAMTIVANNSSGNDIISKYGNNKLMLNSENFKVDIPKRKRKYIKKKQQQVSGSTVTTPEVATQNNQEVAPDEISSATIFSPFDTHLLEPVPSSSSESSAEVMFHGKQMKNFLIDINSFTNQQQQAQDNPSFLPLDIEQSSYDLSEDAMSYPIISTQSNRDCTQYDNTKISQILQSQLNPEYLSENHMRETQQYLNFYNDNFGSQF
In short: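 PURExpress in vitro transcription/translation supplied GST-tagged yeast transcription factors, either full-length or DNA-binding domain. Applied at about 100-200 nM to universal all-10-mer Agilent arrays double-stranded by primer extension, the bound protein was detected with fluorescent anti-GST. E-scores, modified Wilcoxon-Mann-Whitney statistics, were given by the Universal PBM Analysis Suite to ungapped eight-base words pooled with their reverse complements after masliner normalisation.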

Sequence	PBM E-score
CTCCCGTC	0.0242
ACAGTACT	-0.276
AGGGCTCA	-0.101
GCTCGGCC	-0.0984
GCAAAGCA	-0.107
CAGTATTC	0.00417
CACAATAA	0.12
CCAAGCTC	-0.115
CCTGACAG	-0.178
GCCGCACC	0.449
GCCAAACA	0.0263
TGTGCCAA	0.117
ACAAATTC	0.161
CAATCGGC	0.115
CTAGTGCA	0.0645
AGTCAACT	-0.268
GCCGAAAA	0.237
CTGTACGC	0.0513
AGGGGCTG	-0.204
ATTTCTTC	0.25
ACTCATGG	-0.23
GGCAACCA	0.0684
AGATGAAG	-0.171
GCCTGTTA	-0.111
GAGACTCA	-0.212

Sequence	PBM E-score
ATTTGGCA	0.0414
CCACCGCC	-0.0507
ACTTACTG	-0.0358
CCGTAGCC	0.0394
ACCGACCG	-0.13
AGTTCTAC	-0.0748
CAATTGAC	0.0501
CTCGAACA	-0.136
CCATTGCA	0.0123
CGGCAACG	0.368
GGCTAGAC	-0.196
CAGCTAAG	-0.153
ACAACGTG	-0.00296
CTGAAGTA	0.00744
CCAGTTAG	-0.0502
CTGCCCAG	-0.284
CTGCTTAA	-0.111
GCCGCCAC	0.0605
GGGGAGCA	-0.353
CTGCAAAG	-0.0716
AACCGGAG	0.0218
CTCCACAC	0.014
ATGGTTAG	-0.119
GCAAATCC	0.134
AGCATCCA	-0.235

Sequence	PBM E-score
CGGTAATC	-0.137
CTATCCTA	-0.0474
AGCCCCAC	-0.151
AAACTCGC	0.0541
CATCTACG	0.045
AAGAGATC	-0.108
AGGTGCTC	-0.295
CCACTTAA	0.0627
CCGCTTCC	0.0449
ACAGTTGC	-0.0462
ATTTACCA	0.0814
CAGTAACG	0.0111
TACCTCGA	-0.106
AACACAGT	-0.0465
TCCCATAA	-0.102
GCAGAGGA	-0.0854
CGTTCAAG	0.139
GGGCTGGA	-0.268
ACAGTGGC	-0.0323
AAAGCCTC	0.204
AGGGAGTC	-0.296
AAGGTCGT	-0.166
GGATACCA	-0.0967
GAGAGTAC	-0.172
GATACCGA	-0.147

Sequence	PBM E-score
GCGCCGAC	0.309
CCCTGCAC	-0.176
GCATTAGA	0.0737
CTACGGAA	0.0958
AACTTGAC	-0.0754
CCGGTGAA	0.232
TATGCCAA	0.0886
AGGTGGCA	0.218
CGGAGCTA	-0.127
ATAAATCA	0.144
AGTGGAGC	0.0728
ATTAATAA	0.122
ATCTCCGG	-0.0109
AACGAGCA	-0.037
ATCCTATG	-0.0492
GCTCCAAA	0.0924
AACGTCTC	-0.13
CTACGCTA	-0.015
AGCAGGCC	-0.199
AATAGTCA	0.0268
AATCATGG	-0.177
ATTTAAGG	0.0537
TGAGGGAA	-0.179
CTGTGAGC	0.136
GGAGGATA	-0.118

Sequence	PBM E-score
ATCTCGAA	0.22
ATTTCTGG	0.0235
CTAGTCTC	-0.179
ATAATAGC	0.0729
CAACGCAC	0.0556
AATGAGGT	-0.0797
CCCTACAC	-0.0256
CGTCATCA	-0.0189
TACACGTA	0.0583
AAGGATCG	0.0164
CCCACAAG	-0.111
CAAGGAGC	-0.0794
CACTTAGC	0.0853
ACTTGTGG	-0.159
AAATTTTC	0.0494
CCTGTTCA	-0.0825
AATTAATG	0.21
CATGACTA	-0.0261
ACCTATCC	-0.0625
CCCCCCCC	-0.5
CCGGGGCC	-0.202
TCGAGACA	-0.08
CCCTGGGC	-0.217
CAAACTTC	0.0557
AGGTACTA	0.015

Sequence	PBM E-score
CCGTGTCA	0.306
TCGACTAA	0.0778
AAATGACA	-0.0414
ATTCCTGA	0.0425
CGCGGAGA	0.109
CTGCTACA	-0.00955
GTCCGATA	-0.101
CACGGACC	0.163
AACCCTAG	-0.101
TGTCGCAA	0.0986
CACCCCCC	-0.259
CCCCGGTA	-0.167
ACGGAGTC	-0.00675
AGTATCCG	0.0313
ATATCCGA	0.189
AAAACAGC	0.0626
CGTCCAGC	-0.00247
GCATGAGC	0.0557
ACACAGGA	-0.134
AAACGACC	-0.0604
AAACCTCA	-0.0665
ATTGTGGC	0.0597
GAGCTGGC	-0.0991
GAATGAGC	-0.0395
GAGGACGC	-0.108

Sequence	PBM E-score
CCGTAGTC	-0.101
ACCCACTA	-0.0848
ACGTGAAA	0.154
CGCCATTC	0.156
ATCATGAT	0.14
TAGGGTAA	0.0204
CCTCCCCC	-0.416
CATCGAGG	-0.0929
AGTGCCCC	0.057
GTGCTCAA	0.115
GGTCATAA	-0.0644
AAGGCACA	0.338
ACGTCAAG	-0.127
AAATGCCA	0.248
CCGTGCAC	0.254
AGAAAGTA	0.104
GGCGCGAC	0.36
ATATTCGA	-0.0655
ATTATTTA	0.281
TCTCTCCA	-0.00126
TCCCAGAA	-0.106
ACACTGTA	0.0157
CCTTACTA	-0.0363
CAAGGACC	-0.144
CATTACCA	0.0358

Sequence	PBM E-score
AGGCGGGG	0.023
ATCCTCCC	-0.304
AAGCGCAG	-0.177
ACGTGTAA	0.0387
ACAGATAA	-0.0189
GATGTTAA	0.102
CTCCGTTA	-0.0232
AATCAATC	0.236
GTATGCGA	0.119
TCGCCTCA	0.281
CCCGAATC	-0.19
AGCGTACC	-0.115
CGCGGGCC	0.141
GACGGGGA	-0.305
CAGATGCC	0.0945
CCATTCAG	-0.0253
CGTGGAAC	0.0411
ATTGTGGA	-0.14
ACGTGAAC	-0.222
TGATCCCA	-0.134
GCTTTGAA	0.00312
GGTAACCA	-0.156
CGGAGTAC	-0.208
CACTACAG	-0.014
ATGTAGTC	-0.0289

Sequence	PBM E-score
AAAGGCTG	-0.102
CATCGGGG	-0.271
ACGTCAGG	-0.245
CGCACTTA	0.125
TCGGTACA	-0.111
CACTTCTA	-0.0559
CTGATCAC	-0.165
AAGAACGA	0.048
TAGTACAA	0.0845
CCCGCAGG	-0.122
CCCGTGAG	-0.0263
AAAAGCCA	0.226
GGATGGGA	-0.167
CATGGTAC	-0.0423
GCTTGGTA	-0.112
AGGTCCTA	-0.253
CCTGTGGA	-0.191
GCAAGATA	0.156
ACGCTAAC	0.0477
